# Results: the supplement of paper PMC5499739
# Over roughly 16,000 sequences, “Z-score” has its median near -0.37; the highest 2% begin near 3.2. The list shows a part of the results.
# Tested on: RBM10 RRM1-ZnF (GST-tagged construct)
# Experiment: RNAcompete 7-mer binding Z-score; higher = stronger binding preference
# Procedure, shortened: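 GST-tagged RBM10 constructs (20 pmol) and a designed pool of 241 399 RNAs up to 41 nt (1.5 nmol) were allowed to bind for 30 min at 4°C in 1 ml Hepes pH 7.8 buffer with glutathione Sepharose beads. After four 2-min washes at 4°C, bound RNA was identified by microarray hybridisation. Enrichment was scored per heptamer motif as a one-sided Z-score across the probes containing it.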
row,Sequence,RNAcompete 7-mer binding Z-score
1,CAUCUUG,-0.88
2,CUUGAGC,-0.844
3,ACAGUUG,-0.123
4,UUCGGGU,0.988
5,AGCAUAC,-0.418
6,UCGAUCU,-0.571
7,CCUUUCU,-0.88
8,CGGAGGA,1.65
9,AUUGAAU,-0.0804
10,AACCGGC,-0.6
11,GGUCCAU,-0.519
12,UCGCGCA,-0.578
13,GCAGUUA,-0.0902
14,GGUGCCA,0.725
15,CGGGUUC,0.777
16,AAGAGGG,2.96
17,UGGAGCG,2.91
18,GGUGAAU,1.48
19,GACAGCG,0.183
20,AUAUAAU,-0.285
21,AGCGUCA,-0.353
22,GGGAUCA,1.78
23,CCGGCUC,-0.581
24,CGGUAAA,0.29

row,Sequence,RNAcompete 7-mer binding Z-score
1,GAGAAUA,0.634
2,CAGAGCG,0.595
3,UGCUAGG,0.602
4,UUUAGAA,-0.548
5,CGUAUCG,-0.539
6,UGUGCGG,1.66
7,GGGAAUG,3.93
8,UUAUCCC,-0.896
9,AAAAUCU,-0.552
10,CUUAUUU,-0.854
11,UUGGACG,1.06
12,CAAGACU,-0.428
13,AAGUUAA,0.102
14,AUGUCAU,-0.399
15,CGGCGUG,0.839
16,UGGGCAC,1.53
17,CCUCUCA,-0.766
18,CCUAUAC,-0.714
19,ACGUAUA,-0.201
20,GCUUACC,-0.604
21,AUCGAAC,-0.305
22,AACCCAU,-0.841
23,GCUGUCA,-0.49
24,UCACUGC,-0.772

row,Sequence,RNAcompete 7-mer binding Z-score
1,GAACGGG,4.25
2,AGAGGAU,1.4
3,CCGCACC,-0.509
4,GUGAACU,0.0853
5,ACCCAUA,-0.886
6,UAGCUAG,-0.123
7,UGUGAGC,0.212
8,GACAGCC,-0.539
9,CAACGCA,-0.607
10,UCGUAAC,-0.62
11,GUGCUAU,-0.256
12,CUAAGCG,-0.389
13,CUCUCUC,-0.629
14,GAGUUGG,3.12
15,AGCCAUG,-0.5
16,AAAGGAA,3.32
17,UCAGGCU,-0.113
18,AAUCUAA,-0.617
19,CUUUGAG,-0.496
20,GUGCGAC,0.407
21,GCGGAUG,2.2
22,AACACCG,-0.236
23,CGGAUGG,2.38
24,UACUUUA,-0.837

row,Sequence,RNAcompete 7-mer binding Z-score
1,UCCGCUG,-0.61
2,GCCUCUG,-0.75
3,ACAUAUU,-0.649
4,CUCCUGU,-0.737
5,CCCGUGG,0.644
6,GAAUAAU,-0.279
7,CAGAGGU,1.25
8,GUACACG,0.358
9,CGUUGGU,0.576
10,GGUUUUC,0.462
11,AGCUCUU,-0.782
12,AGUUCGG,-0.00571
13,GCUUGCU,-0.733
14,CACGUGA,0.0528
15,CGCUUGA,-0.675
16,CAUAGUG,0.121
17,GCGUCCC,-0.422
18,CGGGUUA,1.95
19,AUUCGAG,-0.266
20,AGUCACU,-0.441
21,GACGAGC,0.043
22,GCGCCAA,-0.539
23,UACAGCU,-0.707
24,ACGUUUU,-0.834

row,Sequence,RNAcompete 7-mer binding Z-score
1,GGAUUAA,0.807
2,GGCAGUA,1.1
3,ACUGGCA,-0.178
4,AAAGGCG,1.21
5,UUCCGGU,-0.587
6,GUGGCAC,0.907
7,GACUGCA,-0.389
8,AAUGGGU,3.89
9,CCGCUCG,-0.617
10,UCCGGGU,0.716
11,ACCGGCC,-0.672
12,ACGAUGC,-0.412
13,UGUUAGG,0.797
14,ACCUAAG,-0.652
15,UCUCAAC,-0.672
16,GUAAAGG,2.92
17,AGCCAAC,-0.35
18,ACGAGAU,-0.201
19,ACGAUAA,-0.243
20,UUUAAAA,-0.542
21,AUUAGAU,-0.24
22,UAUCAAA,-0.532
23,AGUCCGC,-0.62
24,GAAUUAU,-0.181

row,Sequence,RNAcompete 7-mer binding Z-score
1,UCUAAGC,-0.711
2,ACCAUGG,0.0788
3,GGCCACC,-0.409
4,AUAUCGA,-0.435
5,GUGGAUA,2.51
6,CAUGUCU,-0.844
7,UUGGCGA,0.605
8,CGUGUUA,-0.652
9,AUACACA,-0.483
10,GGGGUCG,2.62
11,CGUGUAC,-0.295
12,GAGGGUA,3.95
13,GUACCUU,-0.73
14,UAAUGGA,1.93
15,CGGGUGC,1.85
16,UGCCCUC,-0.617
17,CGCCUCU,-0.802
18,CUACCCG,-0.737
19,GAUGAUG,1.79
20,AACUAUU,-0.707
21,GAUCUCU,-0.876
22,ACACUAC,-0.629
23,CCCCAAG,-0.275
24,GAUUAAU,-0.246

row,Sequence,RNAcompete 7-mer binding Z-score
1,UCUAGAA,-0.584
2,CUAUGCG,-0.483
3,GGAGCAU,1.24
4,AUAGGUA,1.89
5,GAAUACU,-0.389
6,UAAUCCG,-0.578
7,ACUUACA,-0.629
8,AGCGAAG,0.875
9,AGCCUGU,-0.668
10,CAUUGAG,-0.106
11,CGCGUCC,-0.578
12,AGCUAGU,-0.217
13,CGUUGGA,0.446
14,CCUGUUA,-0.896
15,GGACGAC,1.03
16,GCAAGGA,2.4
17,GCCUCAC,-0.581
18,AAGGGAG,3.99
19,CCCGGGG,0.878
20,GAGAGUG,1.71
21,GGAUCGU,0.394
22,GACGUCC,-0.766
23,UAUGUCG,-0.34
24,GACACUG,-0.318

row,Sequence,RNAcompete 7-mer binding Z-score
1,AUGCAUG,-0.0512
2,CUAACUC,-0.733
3,GCGUCUA,-0.454
4,CUCCAUU,-0.818
5,UAUUCCU,-0.73
6,GGUAAGC,1.81
7,UUCAAAC,-0.828
8,GGUACUA,0.641
9,CGUGACU,-0.311
10,UCAUCUA,-0.737
11,AUCAACC,-0.759
12,UAAUGUG,0.706
13,UUGGAAA,0.797
14,UGAGGGG,3.64
15,GGUGGAG,4.02
16,UCUUAGG,-0.327
17,UUAUCCU,-0.867
18,UCGCGUG,-0.022
19,GUGGCGG,3.26
20,UCCGCGA,-0.688
21,CUUCGGC,-0.759
22,UAGGGAA,3.15
23,GAAGGGC,2.98
24,GUAACUG,0.15

row,Sequence,RNAcompete 7-mer binding Z-score
1,GCACGUG,0.17
2,CGCGGGU,1.84
3,AGGUCUU,-0.552
4,GGUUAAC,1.13
5,CUUCCUG,-0.711
6,GACCAUA,-0.867
7,ACGAGGG,3.35
8,CGGCCAC,-0.275
9,ACACAAU,-0.642
10,UUCGCCU,-0.811
11,UAUGGGC,1.47
12,GUGUACU,-0.295
13,GAACGAG,0.923
14,UCCAACA,-0.73
15,CUAGACU,-0.578
16,UGCGUGG,1.54
17,GAUCGCC,-0.795
18,AAUCUCG,-0.675
19,CCCAAGU,-0.496
20,UGUACAA,-0.269
21,UGAAUUC,-0.675
22,UUAUCCG,-0.655
23,UUUUACU,-0.808
24,CUGCACA,-0.435

row,Sequence,RNAcompete 7-mer binding Z-score
1,ACGGUUA,0.79
2,AAGUAGA,0.725
3,GGCGGAU,1.75
4,UCACGUU,-0.779
5,CAACACA,-0.295
6,CUGGGCU,0.511
7,UGACUCG,-0.487
8,CCAGACC,-0.642
9,CAAAAAG,-0.363
10,ACGGCUC,-0.386
11,UGGGACA,2.09
12,GGCCAGC,-0.119
13,GCUAGCA,-0.269
14,CGAAGGU,1.5
15,UGUGGCU,0.368
16,UUACUGU,-0.558
17,GGAACUG,0.949
18,AGGGAAG,4.53
